Data as given in the supplement of paper PMC12067230.
This is a noisy data set.

Assay: amyloid nucleation score relative to library mode (yeast Sup35 reporter selection) (log enrichment difference); higher = more amyloid nucleation; sequences are the first 22 residues of the Bri2 peptide extended by up to 12 random residues
Conditions: random library (experiment): 1;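 active = nucleation score significantly above 0 at FDR 0.05; inactive = not significantly above 0 or absent from output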
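Further: [psi-pin-] Saccharomyces cerevisiae expressing SupN fusions, induced by 100 µM Cu2SO4, selected 7 d at 30 °C without adenine and uracil, scored by deep sequencing of output versus input.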

Sequence | amyloid nucleation score
EASNCFAIRHFENKFAVETLICTMTW | inactive
EASNCFAIRHFENKFAVETLICTMVDRRLSEETF | inactive
EASNCFAIRHFENKFAVETLICTMVV | inactive
EASNCFAIRHFENKFAVETLICTMYSQDYTGLRQ | 1.92
EASNCFAIRHFENKFAVETLICTNDAGMVAGSEG | inactive
EASNCFAIRHFENKFAVETLICTNDGVTRAYVRR | 2.98
EASNCFAIRHFENKFAVETLICTNLCPIRRNAIV | 1.28
EASNCFAIRHFENKFAVETLICTNPRDVVHILMY | -0.258
EASNCFAIRHFENKFAVETLICTNRPSLV | inactive
EASNCFAIRHFENKFAVETLICTNSRS | inactive
EASNCFAIRHFENKFAVETLICTNVQDIAVELRH | 6.01
EASNCFAIRHFENKFAVETLICTNVVPESSIAGV | 3.29
EASNCFAIRHFENKFAVETLICTPALTGPRLCVR | inactive
EASNCFAIRHFENKFAVETLICTPCKCRWYRTSS | 4.94
EASNCFAIRHFENKFAVETLICTPLQAWQRSVPR | inactive
EASNCFAIRHFENKFAVETLICTPSQRRY | inactive
EASNCFAIRHFENKFAVETLICTPVAL | 0.747
EASNCFAIRHFENKFAVETLICTPVVDCCSGMWS | 5.44
EASNCFAIRHFENKFAVETLICTQKL | inactive
EASNCFAIRHFENKFAVETLICTQLLTQSGHCQR | 4.26
EASNCFAIRHFENKFAVETLICTQPHESMYRGTT | inactive
EASNCFAIRHFENKFAVETLICTQRDKSGRRLEG | -0.0572
EASNCFAIRHFENKFAVETLICTQRRNRQCMWMA | inactive
EASNCFAIRHFENKFAVETLICTR | 1.67
EASNCFAIRHFENKFAVETLICTRAITMIGWRNA | inactive

Sequence | amyloid nucleation score
EASNCFAIRHFENKFAVETLICTRASSEYAAWAD | 1.96
EASNCFAIRHFENKFAVETLICTRDEGIYRKIGK | inactive
EASNCFAIRHFENKFAVETLICTRHSFVWLPNPP | inactive
EASNCFAIRHFENKFAVETLICTRLFRVSFWTCW | inactive
EASNCFAIRHFENKFAVETLICTRLHFIICVGDE | inactive
EASNCFAIRHFENKFAVETLICTRLLRKTHCYVS | inactive
EASNCFAIRHFENKFAVETLICTRLNELYRKRHW | 2.9
EASNCFAIRHFENKFAVETLICTRLNSYITFSSV | inactive
EASNCFAIRHFENKFAVETLICTRMCKD | 3.21
EASNCFAIRHFENKFAVETLICTRMNSCDDTL | inactive
EASNCFAIRHFENKFAVETLICTRNPEIKVLLCM | inactive
EASNCFAIRHFENKFAVETLICTRNTLLCRIQTY | 0.0198
EASNCFAIRHFENKFAVETLICTRQ | 1.33
EASNCFAIRHFENKFAVETLICTRR | 0
EASNCFAIRHFENKFAVETLICTRRFVWVPWVAH | -0.511
EASNCFAIRHFENKFAVETLICTRRVTECPHLLW | inactive
EASNCFAIRHFENKFAVETLICTRSPTIVFCATG | inactive
EASNCFAIRHFENKFAVETLICTRSRYWQILVSL | -0.0572
EASNCFAIRHFENKFAVETLICTRSSGGPLVMGW | inactive
EASNCFAIRHFENKFAVETLICTRSVYCGFRTV | 0.153
EASNCFAIRHFENKFAVETLICTRVFGSNDGSEE | 3.27
EASNCFAIRHFENKFAVETLICTRVGCSWVRAAW | 0.928
EASNCFAIRHFENKFAVETLICTRVGPSTAEVCG | 2.03
EASNCFAIRHFENKFAVETLICTRVKDQAVLLLP | inactive

Same assay, conditions: random library (experiment): 2

Sequence | amyloid nucleation score
EASNCFAIRHFENKFAVETLICTNCGS | inactive
EASNCFAIRHFENKFAVETLICTNLSIISLHNRV | 9.24
EASNCFAIRHFENKFAVETLICTNVKWCRTDFWL | 2.54
EASNCFAIRHFENKFAVETLICTNWYFPIIDF | inactive
EASNCFAIRHFENKFAVETLICTNYQTQNTKGRW | 4.69
EASNCFAIRHFENKFAVETLICTNYRIRIPVLWG | inactive
EASNCFAIRHFENKFAVETLICTNYRLSKDRFRC | 3.54
EASNCFAIRHFENKFAVETLICTP | inactive
EASNCFAIRHFENKFAVETLICTPGLRLSTGYMR | -0.3
EASNCFAIRHFENKFAVETLICTPHWQYGSLGIL | inactive
EASNCFAIRHFENKFAVETLICTPLMYGIAVWYG | inactive
EASNCFAIRHFENKFAVETLICTQ | inactive
EASNCFAIRHFENKFAVETLICTQASLDEDLNFL | inactive
EASNCFAIRHFENKFAVETLICTQKDNGYTADNS | inactive
EASNCFAIRHFENKFAVETLICTQN | -0.122
EASNCFAIRHFENKFAVETLICTQPLFLPDFYSW | 5.57
EASNCFAIRHFENKFAVETLICTQPNIVLYKIVV | 4.99

Sequence | amyloid nucleation score
EASNCFAIRHFENKFAVETLICTRAKMRDLWLMS | inactive
EASNCFAIRHFENKFAVETLICTRDVTW | inactive
EASNCFAIRHFENKFAVETLICTRECTRN | inactive
EASNCFAIRHFENKFAVETLICTRGVWNIWVMQW | inactive
EASNCFAIRHFENKFAVETLICTRGYIHNIDGGD | 4.38
EASNCFAIRHFENKFAVETLICTRHRIFMSHMLA | inactive
EASNCFAIRHFENKFAVETLICTRI | inactive
EASNCFAIRHFENKFAVETLICTRKELGDCCFTG | 1.44
EASNCFAIRHFENKFAVETLICTRM | inactive
EASNCFAIRHFENKFAVETLICTRP | inactive
EASNCFAIRHFENKFAVETLICTRQERGFSEVND | inactive
EASNCFAIRHFENKFAVETLICTRQIVKRWKLCN | -0.3
EASNCFAIRHFENKFAVETLICTRSILNVMGFWR | inactive
EASNCFAIRHFENKFAVETLICTRSIRYVCCM | 1.55
EASNCFAIRHFENKFAVETLICTRSWHSLVNYDY | inactive
EASNCFAIRHFENKFAVETLICTRTFGLFSRLHP | inactive
EASNCFAIRHFENKFAVETLICTRTWCCMQWASL | 4.67

Same assay, conditions: random library (experiment): 3

Sequence | amyloid nucleation score
EASNCFAIRHFENKFAVETLICTMVCPCDTHLRM | 7.81
EASNCFAIRHFENKFAVETLICTNHGSCGCWSWR | 8.66
EASNCFAIRHFENKFAVETLICTNLLTNGVVSYF | 8.56
EASNCFAIRHFENKFAVETLICTNVGCAPPGLRW | 8.46
EASNCFAIRHFENKFAVETLICTNVRVNGGCAGS | inactive
EASNCFAIRHFENKFAVETLICTNWLVSEGEGRG | 0.649
EASNCFAIRHFENKFAVETLICTPGERWFWYMNV | inactive
EASNCFAIRHFENKFAVETLICTPGRMIRKGV | inactive
EASNCFAIRHFENKFAVETLICTPGRSKPVKTLN | inactive
EASNCFAIRHFENKFAVETLICTPLKSQVCMA | inactive
EASNCFAIRHFENKFAVETLICTPMCSFNQVGSC | 7.47
EASNCFAIRHFENKFAVETLICTPPLVSRLTAGW | inactive
EASNCFAIRHFENKFAVETLICTPQWGCRQCFEH | 4.45
EASNCFAIRHFENKFAVETLICTPSMDRWRWNW | 5.12
EASNCFAIRHFENKFAVETLICTPSVVMDTGGQW | inactive
EASNCFAIRHFENKFAVETLICTQCTHIYTSSHL | 4.51
EASNCFAIRHFENKFAVETLICTQLNLMNGSGFE | 9.25
EASNCFAIRHFENKFAVETLICTQQYVYVPLPSC | inactive
EASNCFAIRHFENKFAVETLICTQSGRIISGGPV | inactive

Sequence | amyloid nucleation score
EASNCFAIRHFENKFAVETLICTQVV | inactive
EASNCFAIRHFENKFAVETLICTQYWKCN | 3.23
EASNCFAIRHFENKFAVETLICTRCMMGRNVDLR | inactive
EASNCFAIRHFENKFAVETLICTRDGIPFDTAYA | inactive
EASNCFAIRHFENKFAVETLICTRHYERGTSREL | 4.26
EASNCFAIRHFENKFAVETLICTRIERSRVESMV | inactive
EASNCFAIRHFENKFAVETLICTRLLRSRSVVPC | inactive
EASNCFAIRHFENKFAVETLICTRNDIESLLGEK | 2.31
EASNCFAIRHFENKFAVETLICTRNGQDTKVRML | inactive
EASNCFAIRHFENKFAVETLICTRQGSSTALGRV | inactive
EASNCFAIRHFENKFAVETLICTRQSVVGLGCIA | inactive
EASNCFAIRHFENKFAVETLICTRSFSHSYVCVA | inactive
EASNCFAIRHFENKFAVETLICTRSGIVV | inactive
EASNCFAIRHFENKFAVETLICTRTI | inactive
EASNCFAIRHFENKFAVETLICTRTKDPTAGQVK | 5.52
EASNCFAIRHFENKFAVETLICTRTNTSCTFGSA | inactive
EASNCFAIRHFENKFAVETLICTRVEW | 2.37
EASNCFAIRHFENKFAVETLICTRVIGRHWRRLR | 2.35
